Data taken from the supplement of paper PMC11417369.
This is one part of the list.

tested on: PfAP2-HC AP2 domain (GST-tagged); assay: gcPBM binding intensity (ln(normalized median fluorescence intensity)); higher = stronger DNA binding
In short: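 DNA-binding domains from P. falciparum, fused to GST and produced in E. coli, were put on an Agilent 4 × 180k double-stranded probe array for 1 h in 1× PBS holding 1% milk, 0.2 mg/ml BSA, 0.5% salmon testes DNA and 0.03% Triton X-100. Probes were primer-extended, 36 bp long and drawn from intergenic genomic regions, with negative controls included. After Alexa488 anti-GST antibody detection and a 488 nm scan, binding intensity was set as the highest Masliner-normalised natural-log median intensity across replicate spots of either probe orientation.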

Row | Sequence | gcPBM binding intensity (ln)
1 | TATATGTGACATGAATGTACCCAAATTATATAAGAA [XGTACX_site3937] | 9.6
2 | TATTCTTACACGTTTGCACACTAAAATATATATATA [CACACA_site435] | 9.84
3 | CATAGGAACATAAGTTGTACGCTATACATACAACAT [XGTACX_site1054] | 9.85
4 | ATTTAATATATTTATTGTACATATAAAATAAAAGAA [XGTACX_site2413] | 9.61
5 | TTAGTGTATTAATTCTCACACACTAAGAAAAAAAAA [CACACA_site3878] | 9.68
6 | ATAAATCCATGGGTAGTGCGCATTTTTTTTTTTTTT [GTGCAC_site9732] | 9.91
7 | ATAAAATGTATATGAATGCACTTGAAGTTTTTTTTT | 9.6
8 | TCTCCTTGTTCCTTTTTTTTAAAAAAAAACATTAAA [CACACA_negctrl_site679] | 9.59
9 | TAATAATAATACCAGCGTACATTTTTCTTTCCTACG [XGTACX_site4056] | 9.69
10 | TGAAAATTAATAAAAAGTACATAGTCAGATTTGTGA [XGTACX_site2450] | 9.83
11 | TCTGTGTTTTTGGGTACACACAAATAGCTTGTATAT [CACACA_site4002] | 9.92
12 | TTCCTTAATCAATATTGTACTTTTTATAAATTTAGT [XGTACX_site3678] | 9.7
13 | TATTTTTTCTTAAACACACACATATATATATATAAT [CACACA_site5567] | 9.95
14 | CTAAACAAAAAATAATGTACACATACATAAAAAATA [XGTACX_site1808] | 9.81
15 | CCCGAACAAACAAATAAACACACAAAAAAAAATATA [CACACA_site8540] | 9.86
16 | TATTGAAAAAATAAAAGTACAAACTCTTATAATATG [XGTACX_site8196] | 9.59
17 | AACACATACAAACACACACACAAAAAAAAAAAAAAA [CACACA_site393] | 10.4
18 | ATTATATATGTATGGTGTACTAAGAATATTTTTTTA [XGTACX_site1950] | 9.55
19 | ATTCAATATAAATACACACACACTTTTAATAATTAA [CACACA_site5963] | 10.2
20 | ATTCACTGGTATGCATGAAAAAAAATATTATTATAA [CACACA_negctrl_site702] | 9.42
21 | TATATATATTTATACACACACATATATTTATATATT [CACACA_site484] | 9.97
22 | TTATGTGTATACTAAGAACACACAAGTTACTTGGTG [CACACA_site8467] | 9.86
23 | TGAATACTTATGTTCGCACACATGCAAATTAAAAAA [CACACA_site4048] | 9.8

Row | Sequence | gcPBM binding intensity (ln)
24 | ATTTTGATAACCGTACGTACATATATATATATATAT [XGTACX_site6605] | 9.95
25 | AAAAAAACGATCGATCGTACTTATATTTACACATTC [XGTACX_site2883] | 9.74
26 | ACATTCAATAAACGTCGTACACTTTCCTTTTTATGA [XGTACX_site3274] | 9.72
27 | ACATGGTGATAATACTGTACAAAAATAAATAAATAC [XGTACX_site897] | 10.2
28 | TTATTTTTCTAAAAAGCATGCAAATAAAGATATGAA [TGCATGCA_site1032] | 9.39
29 | TTGTTTGGTTATAATTGTACGCATGTAATTACATAT [XGTACX_site4972] | 9.84
30 | TTTTATAGTCTTATGGGTACAAAATATTAACCCACG [XGTACX_site1131] | 9.37
31 | ATATATATTTTATTATGTACTTACTTCTTTTCTTAA [XGTACX_site6163] | 9.79
32 | TAGACTCCCAGACACACACACACACCCATATAATAT [CACACA_site593] | 10.5
33 | TTTTTTTTTTTTGGTGCATGCACATTTTGTTTTTTT [TGCATGCA_site570] | 9.95
34 | TATTATTATTGTTGATGTACATTTAATATAATATAT [XGTACX_site4482] | 9.64
35 | TTTAATATATATATGTGTACATATAAATTATATATA [XGTACX_site8511] | 9.49
36 | TTTATATTTTAAAAAATAATATTATGTATTTTTAAA [TGCATGCA_negctrl_site507] | 9.22
37 | GTACTTATTAAATGTGCATGTTGATATATAAATGTA [TGCATGCA_site902] | 9.6
38 | ATATAATAAACGTGTACACAATTAAATTATTATATA [CACACA_site5017] | 9.69
39 | ATATACATAAAAATATGTACATATAAAATATATACA [XGTACX_site2394] | 9.7
40 | TTATTAAAAATGTATTGTACAAATTTATTAGTAAAT [XGTACX_site4799] | 9.32
41 | ATTTATACAAAGCTTCGTACATAATGTATTCTTTTT [XGTACX_site2166] | 9.83
42 | TTTTAATTGTTTATTTGTACATATGTTTAATTATAT [XGTACX_site571] | 10.1
43 | TTTTTAAAAAAATTGATTCTTTTTCTTTTTTTTCTT [XGTACX_negctrl_site127] | 9.36
44 | TTTTTTGCTTGGGTGAGAAAAAATAAAATAAAGGAA [TGCATGCA_negctrl_site139] | 9.09
45 | TTATAATCTTTTGGTTCTATAGAATATCAAAAAATA [CACACA_negctrl_site1149] | 9.29
46 | AAAAAATAAAAGGAAAAAAAAAAAAAAAAAAAAAAT [CACACA_negctrl_site635] | 9.56

Row | Sequence | gcPBM binding intensity (ln)
47 | TATTATTGTCATTTTTTTTTTTTTTTTTTCTATTTC [XGTACX_negctrl_site114] | 9.53
48 | TTTTGCGAAAAAAGGTGTACTGTAAATATATTGAGG [XGTACX_site8941] | 9.43
49 | AGCACCCACCAACACACACACACACCCACCCACCGA [CACACA_site368] | 11.2
50 | AAATAAATAAATATACGTACATATATATAATATATA [XGTACX_site5124] | 9.78
51 | TTTTTTTTTAATTACATAAAATAAAAATATTTCTAT [CACACA_negctrl_site584] | 9.38
52 | TTAATATGTTTAACCATTTTACATAAATTGATTTGT [CACACA_negctrl_site1100] | 9.82
53 | TTTTTTTTGATTTGTTTGCACTTATTTCCACAATAA | 9.68
54 | TACGTAAATTTTAATACACACTATAGGATATTCTGC [CACACA_site5418] | 9.58
55 | TTGTATCTTCATTTTATCAGAAAAAAAAAAAAAAAT [CACACA_negctrl_site775] | 9.24
56 | ATATATATATATAGGGGTACTTAAATTTTACTAACC [XGTACX_site1832] | 9.74
57 | ATTTTATTTATATACACACACATATATATATTATAT [CACACA_site822] | 10.1
58 | AAAGGGTTACAAGAGGAACACACAAAAAAATAAATA [CACACA_site8406] | 10.1
59 | AATAAATAAATAAATTAATATATATATATATATAGA [CACACA_negctrl_site1661] | 9.66
60 | TCATATAAAACATGCACACATATGTACTCTTATAAA [CACACA_site3748] | 9.75
61 | TTTATTAATGGACACACACACACACCCAAAATAAAA [CACACA_site4294] | 10.5
62 | TATATTTATATATGTTGTACTCTCCAATAATATTCC [XGTACX_site4438] | 9.62
63 | TATATATTTATATTTACACACAGTTACTATGTAGAT [CACACA_site3292] | 9.92
64 | ATTAAATGATCAAGGTGTACATTAACAAGAACTATA [XGTACX_site7022] | 9.72
65 | TGAATAAAAAAACCTAGTACTTAAATAAGTATATTT [XGTACX_site7690] | 9.69
66 | TATATATATACATACGTACACACAAATATTAAAATA [CACACA_site1950] | 9.88
67 | TAAAAAAAATAGAAACGTACATAAAAAATAAATAAT [XGTACX_site5796] | 10.2
68 | TAGATAAAATTAAAATGTACAAACCTTTTCCCTTAT [XGTACX_site1136] | 9.54
69 | ATATATATATATATATGTACTTATTTATTTTATATA [XGTACX_site8810] | 9.54

Row | Sequence | gcPBM binding intensity (ln)
70 | TTTTTTTTATCAAATTGTACATATACAAAGGTGATC [XGTACX_site8054] | 9.41
71 | ATTTTATTTTTTAATAGTACTCATTTTTTATGTGAA [XGTACX_site5494] | 9.59
72 | ATATATATATATGATACATGCATATATTTTTTCTTC [TGCATGCA_site216] | 9.96
73 | TATATATATATAAAGGTGCATATCTTTACGTATGTC [GTGCAC_site9665] | 9.67
74 | ATAAAATGGGCAAACACACACAAAAAAAAGATATAT [CACACA_site1648] | 10.3
75 | AGGGGCGAAACAAAGGTGCTTTTATAAAATATGTAA | 9.41
76 | CCCAATAATTAAACAACACACATATATATCTGTAAT [CACACA_site5667] | 10.1
77 | AGAAATCATCTGAATTGTACTAACAATTTTTTTTAA [XGTACX_site6191] | 9.43
78 | AGAGAAGAAAACAAAACACACACATATATCTTAATA [CACACA_site8699] | 10.2
79 | AACTTAAAAAAAAAAAAAAAAAAAAAAAAAAAAAAA [GTGCAC_negctrl_site34] | 9.07
80 | CTTAAATCTACTATTTGTACATATTTTATTATTAAA [XGTACX_site6151] | 9.69
81 | TATTATAATAAAATATGTACACACATACACACATAT [XGTACX_site2360] | 10.3
82 | AGAGGGGAAAACATGATGCACTAGTATAACCAAGAA | 9.8
83 | TTTCCTTATAAAAATACACACAAACTTTCATTAAAA [CACACA_site5953] | 9.61
84 | TCATATTATTATATATGTACATACCAATATATTATA [XGTACX_site2988] | 9.73
85 | TAGATATGTCTAAAAAGTACTTTCTATAACAATTCT [XGTACX_site6678] | 9.4
86 | AACACCAAACAAAGGTGTACATATAGGAAAAAATCT [XGTACX_site1006] | 9.68
87 | TACACGCAGAAACACACACACACACCCATATATATA [CACACA_site637] | 11.4
88 | TATCACATATTATGATGTACAAAGATTCTGACTAAT [XGTACX_site2770] | 9.45
89 | TGTTATATATATACAAACATACACATTTATAAACAA [TGCATGCA_negctrl_site235] | 9.6
